{"source": "PubChem BioAssay AID1671194", "about": "(National Center for Advancing Translational Sciences (NCATS), 2021)", "note": "Out of some 140,000 compounds screened, about 240 (0.17%) were called active. Inconclusive means that the source gave no clear call. Such entries were picked first, then a sample of the others. Calls come from the whole dose curve; as a rule, active = well fitted inhibition curve with a large enough effect; inconclusive = small, poorly fitted or top-dose-only effect; inactive = no such curve, though single readings can be large or run the other way. Potencies beside an inconclusive call are fits to weak or partial responses and may not hold up. Potency is the fitted concentration of half-maximal effect; tags give direction and shape of the fitted curve.", "data": [{"test": "Primary qHTS assay for inhibitors of alpha-synuclein gene (SNCA) expression; note: nearly all actives have a fitted effect of over 45% in size;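 for activity change, negative = inhibition: plate controls were DMSO cells for no effect and cell-free wells for full effect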", "conditions": "HEK-293 SNCA-luciferase knock-in, luminescence, 24 h; activity change, negative = inhibition: at 57.2 µM (top of the series) unless noted", "values": [{"compound": "Cc1ccc(CSc2nc3cccnc3n2Cc2ccc(C(=O)NCCc3cccs3)cc2)cc1", "Potency": "inconclusive: 10 µM [inhibitor, partial curve, poor fit]"}, {"compound": "CCN(Cc1cccc2cnccc12)CC1CCCN(CCc2cccc(F)c2)C1", "note": "(stereo unspecified)", "Potency": "inconclusive: 3.55 µM [inhibitor, full curve, poor fit]"}, {"compound": "Cn1nccc1OCc1cn2c(=O)n(C)cc(-c3cccc(C(F)(F)F)c3)c2n1", "Potency": "inconclusive: 11.2 µM [inhibitor, single point]"}, {"compound": "COc1cccc(CCC(=O)N2CCCN(c3cc(-c4ccc(C)c(C)c4)[nH]n3)CC2)c1", "Potency": "inconclusive: 7.94 µM [inhibitor, full curve, poor fit]"}, {"compound": "COc1ccc(C2CC(=O)N(CC(=O)Nc3cccc(C)c3C)c3ccccc3S2)cc1OC", "note": "(stereo unspecified)", "Potency": "inconclusive: 3.98 µM [inhibitor, full curve, poor fit]"}, {"compound": "CCc1cccc(NC(=O)C2CCN(S(=O)(=O)c3cccc(-c4noc(C)n4)c3)CC2)c1", "Potency": "inconclusive: 39.8 µM [inhibitor, single point]"}, {"compound": "CN1C[C@H](O)C[C@H]1c1nnc2n1CCN(C(=O)Cc1ccccc1)CC2", "activity change, negative = inhibition": "inactive: 8.27%"}, {"compound": "COc1ccc(C)cc1Nc1nc(N)c2cc(OC)c(OC)cc2n1", "Potency": "inconclusive: 39.8 µM [inhibitor, single point]"}, {"compound": "O=C(NCC(F)(F)F)c1cc(-c2cc(Cl)cc(Cl)c2)c2cccn2n1", "activity change, negative = inhibition": "inactive: -18.5%"}, {"compound": "CCOc1cccc(CNC(=O)c2cc3n(n2)CC(c2ccc(Cl)cc2)OC3)c1", "note": "(stereo unspecified)", "Potency": "inconclusive: 17.8 µM [inhibitor, partial curve, poor fit]"}, {"compound": "Cn1cnc(C(=O)N2C[C@@H](COc3ccccc3)[C@H](C(N)=O)C2)c1", "activity change, negative = inhibition": "inactive: 1.64%"}, {"compound": "COCCN1C(=O)c2cccn2CC1CNC(=O)c1ccc(F)cc1", "note": "(stereo unspecified)", "Potency": "inconclusive: 10 µM [inhibitor, partial curve, poor fit]"}, {"compound": "Cc1cc(C)c(NC(=O)Cn2c(=O)n(Cc3ccc(C(=O)NCc4ccco4)cc3)c(=O)c3sccc32)c(C)c1", "Potency": "active: 25.1 µM"}, {"compound": "O=C(Nc1ccccc1Br)N1CCC(CN2CCCC2)CC1", "Potency": "inconclusive: 39.8 µM [inhibitor, single point]"}, {"compound": "COCCNC(=O)[C@@H]1CCC[C@@H](NC(=O)c2cncnc2)CN(C)C(=O)C1", "Potency": "inconclusive: 8.91 µM [inhibitor, single point]"}, {"compound": "Fc1ccc(OC2CN(Cc3cccc4ccccc34)C2)cc1F", "activity change, negative = inhibition": "inactive: -11.2%"}, {"compound": "N#Cc1cccc(CN2C3CCC2CN(C(=O)Nc2ccccc2F)C3)c1", "Potency": "inconclusive: 10 µM [inhibitor, partial curve]"}, {"compound": "O=C(C1CC1)N1CCCN(c2ccnc3ccnn23)CC1", "activity change, negative = inhibition": "inactive: 17.8% [at 87.6 µM]"}, {"compound": "Cn1ncc2c(N[C@@H](Cc3ccccc3)C(N)=O)nc(-c3ccncc3)nc21", "Potency": "inconclusive: 25.1 µM [inhibitor, partial curve, poor fit]"}, {"compound": "O=S(=O)(c1cccnc1)N1CCC2(CC1)NCCc1c2[nH]c2ccccc12", "Potency": "inconclusive: 39.8 µM [inhibitor, single point]"}, {"compound": "Cc1ccc(C)c(Cn2c(=O)n(CCCC(=O)NCc3ccc4c(c3)OCO4)c(=O)c3sccc32)c1", "Potency": "inconclusive: 17.8 µM [inhibitor, single point]"}, {"compound": "CCN1CC(C(=O)N2CCN(CCOc3ccccc3)CC2)CC1=O", "note": "(stereo unspecified)", "activity change, negative = inhibition": "inactive: 18.4%"}, {"compound": "CN(C(=O)c1nn(C)c2c1CS(=O)(=O)c1ccccc1-2)c1cccc(Cl)c1", "Potency": "inconclusive: 5.01 µM [inhibitor, partial curve]"}, {"compound": "COC(=O)[C@@H]1Cc2ncn(C)c2CN1C(=O)c1ccccc1", "Potency": "inconclusive: 17.8 µM [inhibitor, single point]"}, {"compound": "COc1cc(=O)n2c(c1C(=O)Nc1ccc3c(c1)OCCO3)CCCC2", "Potency": "inconclusive: 39.8 µM [inhibitor, single point]"}, {"compound": "Cn1ccc2c(C(=O)NCCC(N)=O)nc(-c3ccccc3)cc21", "activity change, negative = inhibition": "inactive: -11.9% [at 87.6 µM]"}, {"compound": "O=C(Nc1ccc(Br)cc1)c1cccc(S(=O)(=O)N2CCc3ccccc32)c1", "Potency": "inconclusive: 12.6 µM [inhibitor, partial curve, poor fit]"}, {"compound": "CC(C)c1ccc(NC(=O)CSC2=Nc3ccccc3C3=NC(CC(=O)NC4CCCCC4)C(=O)N23)cc1", "note": "(stereo unspecified)", "Potency": "inconclusive: 39.8 µM [inhibitor, single point]"}, {"compound": "O=C(NCc1ccc(F)c(F)c1)c1ccc2nc(-c3cccnc3)oc2c1", "activity change, negative = inhibition": "inactive: 16.9% [at 87.6 µM]"}, {"compound": "COc1cccc(-c2cc(-c3ccc(OC)nc3)c3cncn3c2)c1", "activity change, negative = inhibition": "inactive: 6.32% [at 87.6 µM]"}, {"compound": "O=C(CSc1oc(-c2ccco2)nc1S(=O)(=O)c1ccc(Cl)cc1)Nc1ccc(F)cc1", "Potency": "inconclusive: 28.2 µM [inhibitor, single point]"}, {"compound": "N[C@H]1CN(C(=O)c2coc(CN3CCOCC3)c2)C[C@@H]1c1ccccc1", "Potency": "inconclusive: 6.31 µM [inhibitor, single point]"}, {"compound": "CCOC(=O)c1cnc2c(ccc3ccccc32)c1Nc1cccc(C(F)(F)F)c1", "Potency": "inconclusive: 3.16 µM [inhibitor, single point]"}, {"compound": "CC(=O)NCCC(=O)N1CCOc2c(O)cc(-c3cccc(Cl)c3)cc2C1", "activity change, negative = inhibition": "inactive: 13.8%"}, {"compound": "CCc1ccc(OCC(=O)N(Cc2ccco2)Cc2ccccc2Cl)cc1", "Potency": "inconclusive: 20 µM [inhibitor, single point]"}, {"compound": "CC1=C(C(=O)Nc2ccccc2)C(c2ccc(C(=O)O)cc2)n2ncnc2N1", "note": "(stereo unspecified)", "Potency": "inconclusive: 7.94 µM [inhibitor, single point]"}, {"compound": "COc1cccc(C(=O)N2CCc3nc(C4CC4)nc(-c4ccc(O)cc4)c3C2)c1", "activity change, negative = inhibition": "inactive: -12.8%"}, {"compound": "COc1ccc(OCc2nc(C3CN(C(=O)c4cccn4C)C3)no2)cc1", "activity change, negative = inhibition": "inactive: 4.35%"}, {"compound": "COc1ccc(Cn2c(C(=O)O)c(CNCCc3ccco3)c3ccc(C)cc32)cc1", "Potency": "inconclusive: 17.8 µM [inhibitor, single point]"}, {"compound": "COc1ccc(Cn2c(-c3ccc(F)cc3)nc(C)c(CCO)c2=O)cc1F", "activity change, negative = inhibition": "inactive: 13.9%"}, {"compound": "COc1ccccc1N1CCCc2ncc(C(=O)N3CCCC[C@@H]3c3ccccc3)cc21", "Potency": "inconclusive: 15.8 µM [inhibitor, partial curve, poor fit]"}, {"compound": "O=C(O)c1cccc2c1CCN2C(=O)Nc1ccc(F)cc1", "Potency": "active: 0.891 µM"}, {"compound": "Cc1ccc(S(=O)(=O)NCCc2csc(-c3ccc(Cl)cc3)n2)cc1", "Potency": "inconclusive: 31.6 µM [inhibitor, single point]"}, {"compound": "c1ccc(CN2CCn3c(nnc3C3CCCNC3)C2)cc1", "note": "(stereo unspecified)", "activity change, negative = inhibition": "inactive: -27.4%"}, {"compound": "COc1ccc(-c2ccc3nnc(CNC(=O)C(C)Oc4cccc(Cl)c4)n3n2)cc1", "note": "(stereo unspecified)", "activity change, negative = inhibition": "inactive: 7.5%"}, {"compound": "Cc1c(Cl)cccc1NC(=O)CCS(=O)(=O)c1ccc2c(c1)oc(=O)n2C", "Potency": "inconclusive: 39.8 µM [inhibitor, single point]"}, {"compound": "O=C(NCc1cc(F)ccc1F)C1CCN(C(=O)c2ncn3c2COC(c2ccccc2)C3)CC1", "note": "(stereo unspecified)", "activity change, negative = inhibition": "inactive: 139%"}, {"compound": "Cc1cc2nc(CO[C@H]3CN(Cc4ccc(C(F)(F)F)cc4)C[C@H]3F)[nH]c2cc1C", "Potency": "inconclusive: 1.12 µM [inhibitor, full curve, poor fit]"}, {"compound": "C[C@@H]1CN(c2ccc3nnc(-c4ccccn4)n3n2)C[C@H](C)O1", "Potency": "inconclusive: 31.6 µM [inhibitor, partial curve, poor fit]"}, {"compound": "O=C(NCc1ccc(Cl)cc1)c1cc(-c2ccc(Cl)cc2Cl)c2nncn2n1", "activity change, negative = inhibition": "inactive: -0.684%"}, {"compound": "CCOC(=O)c1c(C)c(C(=O)NCc2ccc(OC)cc2)c(C)n1CC", "Potency": "inconclusive: 7.08 µM [inhibitor, single point]"}, {"compound": "CC1=C[C@@H](CN2CCN(c3ccccc3)CC2)[C@H](C(C)C)C[C@H]1Cc1nnc(-c2cncn2C)o1", "Potency": "inconclusive: 2.51 µM [inhibitor, full curve]"}, {"compound": "O=C(c1cn[nH]c1-n1cnnn1)N1C[C@H](CO)C[C@H](CN2CCCC2)C1", "Potency": "inconclusive: 8.91 µM [inhibitor, single point]"}, {"compound": "CCC(=O)N1CCC2(CC1)c1[nH]c3ccccc3c1CCN2C", "Potency": "inconclusive: 39.8 µM [inhibitor, single point]"}, {"compound": "CCC(O)c1cc2n(n1)CCN(C(=O)c1ccc(-c3ccccc3)n1C)C2", "note": "(stereo unspecified)", "activity change, negative = inhibition": "inactive: -8.29%"}, {"compound": "CCOc1ccc(C(=O)c2cn(CC(=O)Nc3ccc(F)cc3)c3cc4c(cc3c2=O)OCCO4)cc1", "Potency": "inconclusive: 39.8 µM [inhibitor, single point]"}, {"compound": "CCCOC1CCCN(Cc2c(C(=O)N(C)CCc3ccccc3)nc3sccn23)C1", "note": "(stereo unspecified)", "Potency": "inconclusive: 3.98 µM [inhibitor, full curve]"}, {"compound": "NCCCC(=O)O", "Potency": "inconclusive: 20 µM [inhibitor, partial curve, poor fit]"}, {"compound": "COc1cccc(CNC(=O)c2oc3c(c2C)-c2nn(Cc4cccc(Cl)c4)cc2CC3)c1", "Potency": "inconclusive: 35.5 µM [inhibitor, single point]"}, {"compound": "O=C(Cn1ccn2nc(-c3ccccc3)c(CO)c2c1=O)NCc1ccccc1Cl", "activity change, negative = inhibition": "inactive: -23.5%"}, {"compound": "CCOC(=O)c1c(NC(=O)COc2c(C)cc(Cl)cc2Cl)sc2c1CCCC2", "activity change, negative = inhibition": "inactive: -6.98%"}, {"compound": "O=C(NC(C(=O)N1CCCC1)C1CCN(C(=O)Cc2ccccc2)CC1)c1ccccc1", "note": "(stereo unspecified)", "activity change, negative = inhibition": "inactive: 41.7%"}, {"compound": "CCc1nncn1C1CCN(C(=O)c2cccc(C)c2)CC1", "Potency": "inconclusive: 7.94 µM [inhibitor, single point]"}, {"compound": "Cc1ccc(C)c(-c2cc3c(=O)n(CCNC(=O)c4ccncc4)ccn3n2)c1", "Potency": "inconclusive: 3.16 µM [inhibitor, partial curve, poor fit]"}, {"compound": "Cc1nn2c(c1-c1ccccc1-c1ccccc1)N(C(=O)CN1CCOCC1)CCC2", "activity change, negative = inhibition": "inactive: -12% [at 87.6 µM]"}, {"compound": "CCC(C)(C)NC(=O)C1CCN(S(=O)(=O)c2c(C)noc2/C=C/c2ccc(C)cc2)CC1", "Potency": "inconclusive: 25.1 µM [inhibitor, single point]"}]}]}
